B1: CPEB3 Ribozyme (parent)
chain: UAACAGGGGGCCACAGCAGAAGCGUUCACGUCGCAGCCCCUGUCAGAUUCUGGUGAAUCUGCGAAUUCUGCUGUAUAUCUC

The source gives no read counts; variants with many changes may rest on few reads.

In the series the parent is B1. Kind of series: self-cleavage, relative activity (ratio to wild type); higher = more cleavage; in vitro, sequencing. Summed up:
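Relative activity compares each variant's cleaved/total read fraction with that of the unmutated ribozyme. To get these fractions, barcoded CPEB3 ribozyme libraries from rounds of error-prone PCR were transcribed with T7 RNA polymerase for 5 hours at 37°C and then given 15 min of DNase I treatment before EDTA was added. The RNAs were reverse transcribed with template switching and sequenced on Illumina, and DNA sequencing linked barcodes to variants. A minimum of 5 reads applied, and three batches were averaged.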
Turning to A13U U69G U78G, the self-cleavage amounted to 0.89.
The value for A13U A20U A35G A45U U54A was 0.25; that for A13U A18C A20G U25A U41C G46A was 0.22; that for A13U U25G U69A U72C U80C was 0.08.
For A13U A18C C34G A64G the value was 0.22; for A13U C38U C40U A64G U67C, 0.13; for C14A A28C A45G A47U, 0.23.
Turning to A13G U41C A56G, the self-cleavage amounted to 0.8.
Turning to A13U U25C U26C U51C A64C, the self-cleavage amounted to 0.05.
With C14U A15G C40U A56U U60C C62G U74A, the self-cleavage was 0.05.
As for A13U U26A A75U U80C, the self-cleavage worked out at 1.21.
For A13U G16A A20U the value was 0.19.
Regarding A13U G30A U51A, the self-cleavage worked out at 0.15.
The value for C14G A15C A65U was 0.15.
For A13U A15G A28G U78C the value was 0.78; for A13U U41A A45G, 0.16.
Turning to A13U U43C U74C, the self-cleavage came out at 1.06.
Turning to A13U U54A U72C, the self-cleavage was 1.27.
With A13U U43C U51A, the self-cleavage turned out to be 1.12.
For A13U A18U U54C the value was 0.39; for A13G U66C C68U, 0.21.
The value for A13U C23G U48C A64U A65G U78C was 0.06; that for A13U G19U U51C was 0.08; that for A13G U67C U80C was 0.19.
The value for A13U A20G U67A U80C was 0.99.
Consider A13U A57G C62A U66C, for which the self-cleavage came to 0.28.
For C14A A15G A45U A65C U69C, the self-cleavage came to 0.13.
The value for A13G U49A U51A was 0.28; that for C14A A15C C40U U43C U48A U51A A57G was 0.2; that for A13G U58C A64G U69A U72C U80C was 0.16.
Regarding A13G U51A G63A U69C U78A, the self-cleavage came to 0.44.
The value for A13U A35U U43C C44U G53A was 0.09; that for A13U U43C U60A U69A was 0.13.
For C14G C34G U48C A57G the value was 0.21; for A13U U31C U48C U58A, 0.06.
For A13U U25A A75G, the self-cleavage was determined as 0.19.
Regarding A13U U31C A65G G73A, the self-cleavage is 0.58.
For A13U A20G C39A G52U U60C U66A, the self-cleavage was found to be 0.1.
With A13U U60C U66C U80A, the self-cleavage came to 0.19.
With A13U U25C U78C, the self-cleavage was determined as 0.18.
Take A13G U43C U48C: the self-cleavage was determined as 0.06.
The value for C14G A35U A45U was 0.23.
For A13U A15G A45U the value was 0.25; for A13U A15G A45U U54C A56G U72G, 0.1.
The value for A13U G22A U25C A28U U41C U49A was 0.16; that for A13U A28G C32U was 0.09.
Turning to A13U A20G G36U A64G, the self-cleavage was 0.16.
The value for A13U U25C C44A G53U A65G U76C was 0.05.
For A13U A18U A35U C62G U67A the value was 0.06; for A13G U41A U60C, 0.14.
The value for A13U U54G U60C U78C was 0.25; that for A13G U43C A64U was 0.57.
Consider A13U C68U U80C, for which the self-cleavage came out at 1.21.
For A13U A21G A45G A47G the value was 0.12; for A13U U41C A64G U80A, 1; for A13U C17U G33A A56G U60C G73A, 0.07.
As for A13U A56U C62U U69A, the self-cleavage was found to be 0.29.
For C14A A18U A35G U43C U78C the value was 0.26; for A13U C32A U66C, 0.13.
The value for A13U G19A U41C A47U A56U U78A was 0.07; that for A13U U31C A45G U51C A75G was 0.12; that for A13U A21G U31C U51C U67A A77G U78A was 0.
With A13G U41C C62U A64U U69C, the self-cleavage stood at 0.19.
Regarding A13U A35G U43C U51C U54C U80C, the self-cleavage came to 1.18.
For C14A A18U A28G the value was 0.64.
The value for A13U A18G A47G U69C was 1.26.
For A13U C14U C39U the value was 1.01.
A13U G52A U67A: the self-cleavage is 0.61.
The value for A13U U31A U67A U74C U80C was 0.2; that for A13U A15G A20G U26A U48C was 0.04.
For A13U A18G U41A the value was 0.08.
A13U G22A U31C U78C: the self-cleavage worked out at 0.04.
For A13U A35G U43A A47U U67G C81U the value was 0.32.
For A13U A45U U58C U69A the value was 0.08; for A13U G33A A35U U43A, 0.04.
On to A13U C23U U31A U51A, for which the self-cleavage amounted to 0.11.
Turning to A13G U51C U54C, the self-cleavage was 0.69.
As to A13G U49C A57G A65G, the self-cleavage worked out at 0.03.
In the case of A13U A57G C59G A65G U76A, the self-cleavage turned out to be 0.17.
For C14G U43G U48C U80A the value was 0.34; for A13U G16A U54C A64U, 0.13.
For A13U C29U A57U U60C U72C the value was 0.08.
For the variant A13U A18G A21U G70C, the self-cleavage turned out to be 0.13.
The value for A13G U41C U76C A77G was 1.13.
For A13U A18G A20G the value was 0.58; for A13U U41C A47G A65G U78C, 0.63.
For A13U U25C C40A the value was 0.14.
Take A13U G19C U26A A47U U51A A56G C79A: the self-cleavage was determined as 0.19.
For A13U C27U G33A G36C U67C C71U U80C the value was 0.06; for A13G U51A U76C, 0.95; for C14A A20G C27A C38U A45G U67A, 0.1.
As for A13U A18G G24A A57G, the self-cleavage was 0.05.
A13U C32G U41C U49A: the self-cleavage was 0.08.
The value for C14G G24A U25C U54C U72C U76A A77G was 0.06; that for A13U C14U A45G was 1.16.
Turning to A13U A20U A21G A35G U69A, the self-cleavage stood at 0.11.
Turning to C14A A35U U54C, the self-cleavage was found to be 0.97.
The value for A13U U25C U26A A47G U67G U72A was 0.03; that for A13U A21G A47C U54C C81A was 0.07; that for C14A A47G A64C was 0.34.
Take A13U A28G A35U U72C: the self-cleavage came to 0.18.
As for A13U A21G U66C A75G U80C, the self-cleavage amounted to 1.11.
The value for A13U A18U U25A A35G C37A A56G G61A was 0.21.
In the case of A13U C17U A28U U43C U48C A64G, the self-cleavage amounted to 0.05.
For A13G U48C U74C the value was 0.48; for A13U A15G U54C A56U U78A, 0.12; for A13U A21G U48C U67C, 0.3.
For C14A A21G A64U U69A, the self-cleavage turned out to be 0.08.
The value for A13U A21G U54C was 0.48; that for A13G U48C U78C was 0.42.
Regarding A13U A28G U54A G61U G63C U69C, the self-cleavage was 0.23.
On to A13U G24A C29U U58A A65G, for which the self-cleavage was 0.04.
For the variant A13G U54C U80C, the self-cleavage is 1.05.
For A13U A15U A28G U41G A56U A64G U78C the value was 0.11; for A13U C17U A35G U51A U69C, 0.8.
For A13U A28U C29U G46A U67C U69C the value was 0.06.
In the case of A13U A20G G22A G46U U72C U76A, the self-cleavage was found to be 0.05.
In the case of A13U U26A U31A U60C U78C, the self-cleavage came out at 0.12.
For A13G U49C A56G, the self-cleavage came to 0.91.
For A13U C40U G63A the value was 0.79.
As for A13U U51A U60C, the self-cleavage was 0.6.
The value for A13U A28G U31C C40U U41A was 0.08.
For A13U U51C A57G U60C the value was 0.34; for A13U A35G U41C A57G C62U A64U U66C, 0.76.
The value for C14G U66C C68U U76A was 0.22; that for A13U A20G U25C U31A U76C U80A was 0.09.
In the case of A13U A21G U25C U49C U51A G70C, the self-cleavage is 0.03.
On to A13U U25C U51C, for which the self-cleavage was determined as 0.08.
Take A13U U54C A56G: the self-cleavage stood at 0.72.
In the case of A13U U49A A64G, the self-cleavage was determined as 0.6.
Consider A13U G53A U58C U60C, for which the self-cleavage was determined as 0.36.
For A13U U51A A77U the value was 1.28; for A13U U43C A45G U49C, 0.11; for A13U A18U U51C G70U U72C, 0.24.
The value for A13U A15G U26A A28G U41A U49C was 0.08; that for C14G A18G U26C C34G U48C A57G U67C was 0.04.
The value for A13G U41C A75U was 1.15; that for A13U A15G U80C was 1.16; that for A13U A15G C37U A47G U51A U72G U76C was 0.32.
Take A13G U41A U43G U48C: the self-cleavage was determined as 0.19.
Turning to A13U C29U G52A A75G, the self-cleavage came out at 0.6.
The value for A13U U26A A35G U58C U66C U67A U78G was 0.49; that for A13U A35U C44A U51A U69A U74A A75U was 0.12; that for A13U U60C C62U A65G A77G U80C was 0.28.
For A13U A18G U26C A28G the value was 0.03; for A13G U72C U80C, 0.93; for A13U U43A A57G U78C, 0.99.
The value for A13U U25C A28C U72C U80G was 0.11; that for A13U A28G G46A A47G U54C was 0.05; that for C14G A15U U25C G52C A57G U78C was 0.04.
Take A13U C14U U58A U66C: the self-cleavage was 0.31.
With A13U U54C U60C U72C U80A, the self-cleavage is 0.35.
For the variant A13U U26G A56G U76A, the self-cleavage came to 0.24.
The value for A13U A18U G30A U76A was 0.24; that for C14G A21G A56G was 0.51.
As for A13U A15G C23U U31A G33A U41A, the self-cleavage is 0.2.
The value for A13U U26A A57G was 0.9; that for A13G U49A U60C U69C was 0.14.
For A13U A18G U48G the value was 0.24; for A13U A28G U43C U54C, 0.36.
A13U C17U A18G U25C U60C C68U U80A: the self-cleavage was 0.03.
In the case of A13U G46A A64G, the self-cleavage amounted to 0.11.
Consider A13G U54A U69C, for which the self-cleavage was 0.23.
The value for A13U U26C A45C U74G was 0.72; that for C14G G24A A35G U41C was 0.5.
Take A13U U31A U43C A64U A65G C79U: the self-cleavage turned out to be 0.06.
Take A13U U25C C27A G30A U58C U78C: the self-cleavage came out at 0.06.

These data come from the RNAGym collection of RNA variant scans (doi:10.1093/nar/gkz1192).
